{"source": "the BET-seq Pho4 binding data (Le et al. 2018)", "note": "Some of the results follow. These are noisy estimates, calculated here from bound and input reads."}
{"target": "T1, Pho4 (S. cerevisiae) (UniProt P07270)", "T1 sequence": "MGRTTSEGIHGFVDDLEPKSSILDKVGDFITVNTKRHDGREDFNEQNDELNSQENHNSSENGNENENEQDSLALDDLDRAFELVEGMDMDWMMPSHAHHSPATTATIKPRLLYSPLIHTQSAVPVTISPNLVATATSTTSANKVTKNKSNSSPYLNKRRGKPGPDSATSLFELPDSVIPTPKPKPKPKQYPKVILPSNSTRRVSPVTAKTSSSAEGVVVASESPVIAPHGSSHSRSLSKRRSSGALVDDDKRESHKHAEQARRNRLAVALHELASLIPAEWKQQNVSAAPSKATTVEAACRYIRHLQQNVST", "assay": "relative binding free energy (BET-seq); higher = weaker binding", "details": "reference: library average", "units": {"relative binding free energy": "kcal/mol"}}
{"sequence": "GCTTTCACGTGGTGGT", "relative binding free energy": 0.28}
{"sequence": "GCGGTCACGTGGGCGG", "relative binding free energy": -0.04}
{"sequence": "TAGATCACGTGGTAGA", "relative binding free energy": 0.14}
{"sequence": "GGTGCCACGTGGAAGT", "relative binding free energy": 0.12}
{"sequence": "TCTTGCACGTGTGTTA", "relative binding free energy": 0.03}
{"sequence": "TCGGTCACGTGGGTTA", "relative binding free energy": 0.03}
{"sequence": "GAGGCCACGTGGCGTG", "relative binding free energy": -0.16}
{"sequence": "GTTTCCACGTGCGTTG", "relative binding free energy": 0.07}
{"sequence": "GGGGGCACGTGATTTA", "relative binding free energy": 0.1}
{"sequence": "CGGGGCACGTGGTTTG", "relative binding free energy": -0.12}
{"sequence": "GTGCTCACGTGTGTGA", "relative binding free energy": 0.24}
{"sequence": "TGTTTCACGTGGTCAA", "relative binding free energy": 0.15}
{"sequence": "TGGGGCACGTGTGATA", "relative binding free energy": -0.04}
{"sequence": "TGATGCACGTGTTGCG", "relative binding free energy": 0.02}
{"sequence": "GCGGACACGTGTGTGT", "relative binding free energy": 0.14}
{"sequence": "TTTTTCACGTGTATCT", "relative binding free energy": 0.15}
{"sequence": "AGAAACACGTGTGTAG", "relative binding free energy": 0.09}
{"sequence": "GGGGTCACGTGGACGG", "relative binding free energy": 0.27}
{"sequence": "TTTCTCACGTGGATGT", "relative binding free energy": 0.36}
{"sequence": "TGCTTCACGTGTGCTT", "relative binding free energy": 0.3}
{"sequence": "TTATTCACGTGGTTAA", "relative binding free energy": 0.17}
{"sequence": "TGTTGCACGTGTCGCG", "relative binding free energy": 0.02}
{"sequence": "TCGTTCACGTGGTGGG", "relative binding free energy": 0.21}
{"sequence": "TTTTGCACGTGGGGGC", "relative binding free energy": -0.14}
{"sequence": "TCGGGCACGTGCATGT", "relative binding free energy": -0.04}
{"sequence": "TGAAGCACGTGTTTAT", "relative binding free energy": -0.08}
{"sequence": "TAGTTCACGTGATACT", "relative binding free energy": 0.31}
{"sequence": "AGTCGCACGTGGTGCT", "relative binding free energy": -0.05}
{"sequence": "TTTAGCACGTGTAATA", "relative binding free energy": 0.11}
{"sequence": "ACGGTCACGTGGGTCT", "relative binding free energy": 0.01}
{"sequence": "AGGTCCACGTGATGGG", "relative binding free energy": 0.15}
{"sequence": "GTAAACACGTGGATTG", "relative binding free energy": 0}
{"sequence": "ATTGCCACGTGGTAGT", "relative binding free energy": -0.19}
{"sequence": "AAATGCACGTGAGATG", "relative binding free energy": 0.35}
{"sequence": "TGAGTCACGTGTCGTT", "relative binding free energy": 0.3}
{"sequence": "TTGAGCACGTGTAGGG", "relative binding free energy": -0.14}
{"sequence": "GATAGCACGTGCGTGT", "relative binding free energy": -0.08}
{"sequence": "GAGGCCACGTGGGGAA", "relative binding free energy": -0.14}
{"sequence": "GTGTGCACGTGTTACA", "relative binding free energy": -0.02}
{"sequence": "GAGGTCACGTGTTAGG", "relative binding free energy": 0.16}
{"sequence": "TCTGACACGTGTATGT", "relative binding free energy": 0.15}
{"sequence": "CATGTCACGTGGGTTT", "relative binding free energy": -0.01}
{"sequence": "ATAGGCACGTGTATGT", "relative binding free energy": -0.04}
{"sequence": "AATGGCACGTGTGAGG", "relative binding free energy": -0.04}
{"sequence": "GAAAGCACGTGTGGTA", "relative binding free energy": -0.02}
{"sequence": "CTGATCACGTGGGGGC", "relative binding free energy": -0.05}
{"sequence": "AGATTCACGTGGCGTT", "relative binding free energy": 0.23}
{"sequence": "GTGAACACGTGGGCGA", "relative binding free energy": -0.04}
{"sequence": "TTGCCCACGTGTTGGG", "relative binding free energy": -0.15}
{"sequence": "GGCTACACGTGAGTTG", "relative binding free energy": 0.28}
{"sequence": "GTAGGCACGTGGACGA", "relative binding free energy": -0.04}
{"sequence": "TCGGCCACGTGGTTAG", "relative binding free energy": -0.08}
{"sequence": "ATTGTCACGTGGAAGA", "relative binding free energy": 0.08}
{"sequence": "CTGGGCACGTGTATTG", "relative binding free energy": -0.09}
{"sequence": "AAAGGCACGTGGCTTT", "relative binding free energy": -0.05}
{"sequence": "GGCATCACGTGAGGGT", "relative binding free energy": 0.43}
{"sequence": "GTACACACGTGTTTGT", "relative binding free energy": -0.13}
{"sequence": "TAAGGCACGTGATGCT", "relative binding free energy": -0.01}
{"sequence": "ATTGACACGTGTTGTG", "relative binding free energy": -0.04}
{"sequence": "TATAGCACGTGTGTAG", "relative binding free energy": -0.04}
{"sequence": "GGACTCACGTGAAGGG", "relative binding free energy": 0.24}
{"sequence": "TGCGTCACGTGGGATT", "relative binding free energy": 0.01}
{"sequence": "TTTTTCACGTGATGCA", "relative binding free energy": 0.28}
{"sequence": "GCTGTCACGTGTGGGG", "relative binding free energy": 0.18}
{"sequence": "TGGGACACGTGGGATG", "relative binding free energy": -0.01}
{"sequence": "GGAGACACGTGTTGTA", "relative binding free energy": -0.08}
{"sequence": "AAATGCACGTGGGAGG", "relative binding free energy": -0.23}
{"sequence": "TGTATCACGTGAGTTG", "relative binding free energy": 0.39}
{"sequence": "TATATCACGTGTCTGG", "relative binding free energy": 0.12}
{"sequence": "TGTCGCACGTGGGGGC", "relative binding free energy": -0.16}
{"sequence": "GTCCTCACGTGTTGGT", "relative binding free energy": 0.23}
{"sequence": "ATTCACACGTGCTGTT", "relative binding free energy": 0.15}
{"sequence": "ATAAGCACGTGATGTA", "relative binding free energy": 0.02}
{"sequence": "AGTGGCACGTGGGTCG", "relative binding free energy": -0.13}
{"sequence": "TGTTGCACGTGGGTGC", "relative binding free energy": -0.08}
{"sequence": "TATTGCACGTGCTCTT", "relative binding free energy": 0.04}
{"sequence": "TTTGACACGTGTTTTC", "relative binding free energy": 0.08}
{"sequence": "GGTGCCACGTGCAGTG", "relative binding free energy": -0.08}
{"sequence": "GGTTTCACGTGGTGAG", "relative binding free energy": 0.31}
{"sequence": "ATGGACACGTGGCGCG", "relative binding free energy": -0.01}
{"sequence": "TTCATCACGTGGAATA", "relative binding free energy": 0.3}
{"sequence": "TAGTGCACGTGGTAGA", "relative binding free energy": -0.06}
{"sequence": "AGGATCACGTGTGAGA", "relative binding free energy": 0.27}
{"sequence": "GATATCACGTGAGTGG", "relative binding free energy": 0.25}
{"sequence": "AGGGACACGTGGGGGC", "relative binding free energy": -0.13}
{"sequence": "GTAGTCACGTGGTGGA", "relative binding free energy": 0.09}
{"sequence": "GCATGCACGTGTTGGA", "relative binding free energy": -0.03}
{"sequence": "ATGTGCACGTGGTACG", "relative binding free energy": -0.12}
{"sequence": "AATGTCACGTGTTTGG", "relative binding free energy": 0.1}
{"sequence": "GGTTCCACGTGGTTCG", "relative binding free energy": 0.2}
{"sequence": "TAATGCACGTGTGTCT", "relative binding free energy": -0.14}
{"sequence": "GTTTGCACGTGGTTGG", "relative binding free energy": 0.14}
{"sequence": "CGAGACACGTGTGGGA", "relative binding free energy": 0.2}
{"sequence": "AGAATCACGTGTAGTA", "relative binding free energy": 0.1}
{"sequence": "GATGACACGTGGAGTG", "relative binding free energy": 0.11}
{"sequence": "CAGTACACGTGAAGGT", "relative binding free energy": 0.28}
{"sequence": "GTTTCCACGTGTGAGT", "relative binding free energy": 0.18}
{"sequence": "TTTAACACGTGTCGCG", "relative binding free energy": 0.01}
{"sequence": "AGGGGCACGTGGCTAT", "relative binding free energy": -0.32}
{"sequence": "ATGGACACGTGGAAAG", "relative binding free energy": 0.14}
{"sequence": "GGTGTCACGTGGCGCT", "relative binding free energy": 0.02}
{"sequence": "GTGGTCACGTGCGCGA", "relative binding free energy": -0.04}
{"sequence": "TGACGCACGTGGGCTA", "relative binding free energy": -0.08}
{"sequence": "TCGTGCACGTGGGCGT", "relative binding free energy": -0.1}
{"sequence": "TTCTGCACGTGGTTAG", "relative binding free energy": -0.01}
{"sequence": "CATATCACGTGGGGCG", "relative binding free energy": 0.09}
{"sequence": "AGGGTCACGTGTAAAA", "relative binding free energy": 0.17}
{"sequence": "ATATGCACGTGGTGTT", "relative binding free energy": -0.19}
{"sequence": "GTGTGCACGTGGGCCT", "relative binding free energy": -0.2}
{"sequence": "GTTATCACGTGATAGG", "relative binding free energy": 0.28}
{"sequence": "ATGTCCACGTGCTGGT", "relative binding free energy": 0.03}
{"sequence": "ATAGGCACGTGTATAC", "relative binding free energy": -0.03}
{"sequence": "TTTGGCACGTGGGTGG", "relative binding free energy": -0.16}
{"sequence": "TGTGGCACGTGAGAAA", "relative binding free energy": 0.2}
{"sequence": "TAGTCCACGTGAAGGG", "relative binding free energy": 0.41}
{"sequence": "TGGATCACGTGCTAGT", "relative binding free energy": 0.21}
{"sequence": "AACGGCACGTGTTTGT", "relative binding free energy": -0.15}
{"sequence": "GTCGGCACGTGGTCAG", "relative binding free energy": -0.03}
{"sequence": "GGGGACACGTGGAAGT", "relative binding free energy": 0.14}
{"sequence": "GTCTGCACGTGGGGGA", "relative binding free energy": -0.23}
{"sequence": "CATCGCACGTGGGGTG", "relative binding free energy": -0.27}
{"sequence": "AGTTACACGTGCAGTG", "relative binding free energy": 0.06}
{"sequence": "TTCGGCACGTGGGTAA", "relative binding free energy": -0.18}
{"sequence": "GCTTTCACGTGGCGTG", "relative binding free energy": 0.27}
{"sequence": "GGCTGCACGTGGAGTG", "relative binding free energy": -0.03}
{"sequence": "ACAGTCACGTGGGGGT", "relative binding free energy": -0.15}
{"sequence": "CGCAGCACGTGGGGAT", "relative binding free energy": -0.2}
{"sequence": "CGTGACACGTGTAGGA", "relative binding free energy": 0.05}
{"sequence": "TGCCGCACGTGGGTAT", "relative binding free energy": -0.25}
{"sequence": "TTCGGCACGTGGGACA", "relative binding free energy": -0.1}
{"sequence": "GCTGACACGTGAGAGG", "relative binding free energy": 0.39}
{"sequence": "AAAATCACGTGTGATT", "relative binding free energy": 0.35}
{"sequence": "GTGATCACGTGCGGCG", "relative binding free energy": -0.02}
{"sequence": "TTGTACACGTGGGTTG", "relative binding free energy": -0.14}
{"sequence": "GGTGTCACGTGGGCAT", "relative binding free energy": 0.08}
{"sequence": "ATGATCACGTGGAGTT", "relative binding free energy": 0.16}
{"sequence": "TAAATCACGTGTTATG", "relative binding free energy": 0.01}
{"sequence": "GGTTACACGTGTGCCG", "relative binding free energy": 0.32}
{"sequence": "TTAAGCACGTGGCGGA", "relative binding free energy": -0.03}
{"sequence": "GGTGGCACGTGCAGAG", "relative binding free energy": -0.07}
{"sequence": "TATGGCACGTGCTGTG", "relative binding free energy": -0.31}
{"sequence": "ATGGACACGTGAGCGT", "relative binding free energy": 0.1}
{"sequence": "GATGTCACGTGGTCGG", "relative binding free energy": 0.17}
{"sequence": "AGCAACACGTGTGTGT", "relative binding free energy": 0.02}
{"sequence": "GAGTTCACGTGGCGCT", "relative binding free energy": 0.4}
{"sequence": "AAGGCCACGTGTAAGG", "relative binding free energy": 0.05}
